This note sets out measurements from PubChem BioAssay AID1745853 (National Center for Advancing Translational Sciences (NCATS), 2022).

What all share (assay): Primary Screen for Target Class Profiling of Small Molecule Inhibitors of Methyltransferases
Assay [1] addresses Glycine N-methyltransferase (Homo sapiens) (UniProt Q14749). The note with it: purified enzyme, MTase-Glo SAH luminescence; measured here: GNMT inhibition; at 40 µM; stronger effect = lower value. The essentials: (§1)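 Each enzyme was assayed with SAM and its substrate. SAH formation detected by MTase-Glo luminescence; single-point 40 uM screen[…].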
The target of assay [2] is Guanidinoacetate N-methyltransferase (Homo sapiens) (UniProt Q14353). The note with it: purified enzyme, MTase-Glo SAH luminescence; measured here: GAMT inhibition; at 40 µM; stronger effect = lower value. The essentials: as §1
The target in assay [3] is Histamine N-methyltransferase (Homo sapiens) (UniProt P50135). The note with it: purified enzyme, MTase-Glo SAH luminescence; measured here: HNMT inhibition; at 40 µM; stronger effect = lower value. The gist of the method:
as §1

Assay [4] has as its target Nicotinamide N-methyltransferase (Homo sapiens) (UniProt P40261). The following applies: purified enzyme, MTase-Glo SAH luminescence; measured here: NNMT inhibition; at 40 µM; stronger effect = lower value. The essentials: as §1
In assay [5] the target is Phenylethanolamine N-methyltransferase (Homo sapiens) (UniProt P11086). The following applies: purified enzyme, MTase-Glo SAH luminescence; measured here: PNMT inhibition; at 40 µM; stronger effect = lower value. The gist of the method:
as §1

Some of the results follow. These are further read-outs of the screen, such as a control signal, another cell line or another target. No call is given for them.
On the % scale 0 is the no-effect control and ±100 the full control effect.

Turning to `C=Cc1ccc(Cn2nc3n(CCC(C)C)c(=O)c4ccc(C(=O)NC(C)CC)cc4n3c2=O)cc1` (stereo not given), the activity change, negative = inhibition in assay [1] is -5.4%; in assay [2], 4.91%; in assay [3] it was -0.078%; in assay [4], -6.3%; in assay [5], 1.39%.
For `CCOC(=O)c1cc2n(n1)CC(C)(C(=O)NC1CCCCCC1)N(c1cccc(SC)c1)C2=O` (stereo not given), in that order: -0.633%, 0%, -4.67%, -4.38% and 2.79%.
Turning to `NC1CCc2n[nH]c(=O)n2CC1` (stereo not given), the activity change, negative = inhibition in assay [1] was -3.7%; in assay [2], -2.25%; in assay [3] it was -1.49%; in assay [4] it was -2.63%; in assay [5], 6.28%.
For `CN(C)C(=O)N1CCC2(CC1)CC(c1cccc(C(F)(F)F)c1)=NO2`, in that order: -5.04%, 0.91%, -1.12%, -2.13% and -7.51%.
In the same order, the values of `COc1c2c(c(C)c3c1C(=O)OC3)OC1(C)CC(O)C34OC(OC)(CCC3(C)C1C2)OC4(C)CO` (stereo not given) are -3.27%, 3.53%, 1.44%, -18.1% and 1.42%.
As to `COc1ccccc1CCC(=O)N1CCCC(c2[nH]ccc2C(N)=O)C1` (stereo not given), the activity change, negative = inhibition is -0.198% in assay [1]; 2.93% in assay [2]; 0.758% in assay [3]; -6.33% in assay [4]; 11.8% in assay [5].
Take `c1ccc(CC2=NOC3(CCCN(Cc4ccns4)C3)C2)cc1` (stereo not given): the activity change, negative = inhibition in assay [1] was -7.35%; in assay [2], -15.3%; in assay [3], -7.78%; in assay [4], -11%; in assay [5], -3.49%.
Take `C=C(C)C1CCC2(C(=O)OC3OC(COC4OC(CO)C(O)C(O)C4O)C(OC4OC(C)C(O)C(O)C4O)C(O)C3O)CCC3(C(=O)O)C(CCC4C5(C)CCC(=O)C(C)(C)C5CCC43C)C12` (stereo not given): the activity change, negative = inhibition in assay [1] was 3.26%; in assay [2], 5.29%; in assay [3], 2.5%; in assay [4], -9.27%; in assay [5] it was 5.45%.
As to `C/C1=C\CC[C@]2(C)O[C@H]2C(=O)c2c(C)coc2C1`, the activity change, negative = inhibition in assay [1] was -8.52%; in assay [2], -9.78%; in assay [3] it was 4.58%; in assay [4] it was -19.8%; in assay [5], -0.795%.
Take `COc1cc(Nc2ccc([N+](=O)[O-])cc2C(=O)O)cc2ccccc12`: the activity change, negative = inhibition was -20% in assay [1]; -3.38% in assay [2]; 6.13% in assay [3]; -37.3% in assay [4]; -4.27% in assay [5].
As for `CC1CCCCC1NC(=O)C1(C)Cn2c(cc3sccc32)C(=O)N1C1CCCCCC1` (stereo not given), the activity change, negative = inhibition is -1.54% in assay [1]; 4.66% in assay [2]; -2.24% in assay [3]; -6.29% in assay [4]; -5.9% in assay [5].
Regarding `Cc1cc(C)cc(N2CCC(NS(=O)(=O)c3cn(C)c(C)n3)C2=O)c1` (stereo not given), the activity change, negative = inhibition in assay [1] was -7.95%; in assay [2], -13.3%; in assay [3], -8.16%; in assay [4], -16.1%; in assay [5], -16.9%.
In the case of `COCCCN1C(=O)c2cc3ccc(OC)cc3n2CC1(C)C(=O)NC1CCCCC1` (stereo not given), the activity change, negative = inhibition in assay [1] came out at 2.69%; in assay [2], 3.28%; in assay [3], 1.73%; in assay [4] it was 0.588%; in assay [5], 0.671%.
For `Cn1cc(C(F)(F)F)nc1-c1ccc(OCC(O)CNCCOc2ccc(O)c(C(N)=O)c2)cc1` (stereo not given), the activity change, negative = inhibition in assay [1] is -12.3%; in assay [2], 8.95%; in assay [3] it was -8.73%; in assay [4], -19.5%; in assay [5] it was 2.12%.
`CC(=O)OC1CC(C(C)(C)O)OC2CCC3(C)OC4=C(C(=O)C=C5C(C)C(OC(C)=O)C6(C)C(C)OC546)C(O)C3C12C` (stereo not given): the activity change, negative = inhibition was 2.16% in assay [1]; -2.4% in assay [2]; 4.92% in assay [3]; -12.7% in assay [4]; -7.97% in assay [5].
For `Cc1cc(C(=O)N2CC[C@H](NS(=O)(=O)c3cn(C)cn3)C[C@H]2C(=O)N[C@H](Cc2c[nH]c3ccccc23)C(N)=O)n(C)n1`, in that order: -1.69%, -5.43%, -2.21%, -2.17% and -0.358%.
For the compound `O=c1[nH]c2ccc(S(=O)(=O)NCc3ccccc3Cl)cc2[nH]1`, the activity change, negative = inhibition in assay [1] is 9.95%; in assay [2] it was 0%; in assay [3] it was 7.96%; in assay [4], -2.3%; in assay [5], -7.89%.
For `C=CC1(C)CC=C2C(CCC3C(C)(C(=O)O)CCCC23C)C1` (stereo not given), in that order: -1.55%, -1.72%, 8.11%, -31.7% and -7.67%.
In the same order, the values of `O=C(Cn1ccc2cc(S(=O)(=O)N3CCCCC3)ccc21)NCCCN1CCCCC1` are -1.73%, 1.97%, -35.1%, -3.65% and -2.06%.
Turning to `COCCCN1C(=O)c2c(NC(C)=O)c3cc(OC)ccc3n2CC1(C)C(=O)NC1CCCCCC1` (stereo not given), the activity change, negative = inhibition in assay [1] was -2.69%; in assay [2], 3.6%; in assay [3], 1.03%; in assay [4], -1.2%; in assay [5] it was -1.27%.
For `Cn1c2c(c3ccccc31)C(C(=O)NCc1ccc(F)cc1)N(c1cccc(C(F)(F)F)c1)C(=O)CS2` (stereo not given), in that order: 1.81%, 0%, 11.2%, 0.729% and 7.37%.
Take `CCCn1c(=O)c2ccc(Cl)cc2n2c(=O)n(CC(=O)N3CCN(c4ccc(F)cc4)CC3)nc12`: the activity change, negative = inhibition in assay [1] was -3.77%; in assay [2], -5.02%; in assay [3], 9.29%; in assay [4] it was -9.98%; in assay [5], -5.8%.
As for `CCS(=O)(=O)N[C@@H]1CN(C2CCOCC2)C[C@H]1CN(C)C`, the activity change, negative = inhibition was -4.12% in assay [1]; 0.932% in assay [2]; -0.39% in assay [3]; -2.33% in assay [4]; 5.57% in assay [5].
In the same order, the values of `CC(C)(C)c1ccc(S(=O)(=O)Nc2ccc(Cl)cc2C(=O)c2cc[n+]([O-])cc2)cc1` are 3.32%, 7.4%, 4.35%, -16.2% and 0.224%.
`CN(CC1CCOCC1)C(=O)NCc1ccco1`: the activity change, negative = inhibition in assay [1] is -0.087%; in assay [2], 0.022%; in assay [3], 1.1%; in assay [4], 1.23%; in assay [5], 3.46%.
For `CC1(C(=O)NC2CCCCCC2)Cn2c(ccc2-c2ccco2)C(=O)N1CCc1ccc(Cl)cc1` (stereo not given), the activity change, negative = inhibition in assay [1] is -2.54%; in assay [2] it was 4.94%; in assay [3] it was 4.49%; in assay [4] it was -2.83%; in assay [5], 0.305%.
